The test system of this test is primary human hepatic stellate cells (donor 1). Briefly: scaled lipid accumulation score (0 = DMSO-like, 1 = nortriptyline-like); higher = stronger HSC inactivation (lipid re-accumulation), active = hit call of the paper. Particulars: 48 h.
[1] abbreviates: library stock concentration: 10 mM.
Setting [2] is: library stock concentration: 1 mM.
Setting [3] is: library stock concentration: 3.33 mM.

The structures appear in SMILES notation. “And” between values parts separate entries of the source, which are not always exact repeats. Equal values may be shown once. Where a name gives a salt, the structure may show the parent alone. In all, about 5,800 compounds went through this assay and about 620 (11%) showed activity.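 The calls were made as follows: active = score above a cut-off or among the top three wells of a plate; in these data no inactive exceeds 0.85.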 The entries are a selection whose mix differs from that of the whole data set.

This note sets out measurements from the supplement of paper PMC9135407.

Consider `CCOC(=O)C1=C(C)NC(C)=C(C(=O)OC)C1c1cccc(Cl)c1Cl` (centres undefined) [Felodipine], for which the “scaled lipid accumulation score” value under setting [1] was active: 0.931. In the case of `Nc1ncnc2c1ncn2C1CCCC1` [9-cyclopentyladenine], the “scaled lipid accumulation score” value under setting [1] is inactive: 0.154. `CC1O[C@H](O[C@]2(O[C@H]3CC[C@@]4(C)C(=CC[C@H]5[C@@H]6C[C@H]7[C@H]([C@H](C)[C@H]8CC[C@H](C)CN87)[C@@]6(C)CC[C@@H]54)C3)C[C@@H](O[C@@H]3OC(CO)[C@@H](O)[C@@H](O)C3O)[C@@H](O)C(CO)O2)C(O)[C@@H](O)[C@H]1O` (stereo partly drawn) [Solanine alpha]: the “scaled lipid accumulation score” value is inactive: ≤ 0. For `COc1cc(Nc2ncc(F)c(Nc3ccc4c(n3)NC(=O)C(C)(C)O4)n2)cc(OC)c1OC`, under setting [1], the “scaled lipid accumulation score” value is active: 1.06.

Turning to `CC(=O)OCC(=O)[C@@]1(O)CC[C@H]2[C@@H]3CCC4=CC(=O)C=C[C@]4(C)[C@H]3[C@@H](O)C[C@@]21C`, under setting [1], the “scaled lipid accumulation score” value is inactive: ≤ 0. For the compound `CC(=O)OCC(=O)[C@@]1(O)CC[C@H]2[C@@H]3CCC4=CC(=O)C=C[C@]4(C)[C@H]3[C@@H](O)C[C@@]21C` [Prednisolone acetate], the “scaled lipid accumulation score” value runs as follows: (library stock concentration: 5 mM) inactive: 0.066; under setting [1], inactive: ≤ 0.

Consider `O=C1NC(c2cccc([N+](=O)[O-])c2)=CCN1c1ccccc1O` [Icilin], for which the “scaled lipid accumulation score” value under setting [2] is inactive: ≤ 0; the “scaled lipid accumulation score” value under setting [1] was inactive: ≤ -0.07 and inactive: 0.063. Take `C[C@]12CCC(=O)C=C1CC[C@@H]1[C@@H]2[C@@H](O)C[C@@]2(C)[C@H]1CC[C@]2(O)C(=O)COP(=O)(O)O` [Hydrocortisone phosphate triethylamine]: the “scaled lipid accumulation score” value (library stock concentration: 3.1 mM) is inactive: ≤ -0.001.

Turning to `CCCNC(=O)N1N=C(c2ccc(N)cc2)c2cc3c(cc2C1C)OCO3` (centres undefined), the “scaled lipid accumulation score” value under setting [1] is inactive: ≤ 0. As for `CC[C@H](c1ccc(O)cc1)[C@@H](CC)c1ccc(O)cc1` [Hexestrol], the “scaled lipid accumulation score” value was inactive: ≤ 0. The “scaled lipid accumulation score” value under setting [3] was inactive: ≤ 0. Also, under setting [1], the “scaled lipid accumulation score” value is inactive: 0.226 and inactive: ≤ 0. Consider `Cc1c(Nc2ncccc2C(=O)O)cccc1C(F)(F)F` [Flunixin meglumine], for which the “scaled lipid accumulation score” value is inactive: ≤ 0.

As for `Cc1c(Nc2ncccc2C(=O)O)cccc1C(F)(F)F` [Flunixin Meglumin], the “scaled lipid accumulation score” value runs as follows: under setting [3], inactive: ≤ 0; under setting [1], inactive: ≤ 0. Regarding `O=C(Cc1ccccc1)NO` [Phenylacetohydroxamic acid], the “scaled lipid accumulation score” value under setting [1] is inactive: ≤ 0. In the case of `CCCCCC(O)CCCC(=O)O` (centres undefined) [5-hydroxydecanoic acid sodium], the “scaled lipid accumulation score” value under setting [1] is inactive: 0.018. Take `N#CC1(c2ccc(NC(=O)c3cccnc3NCc3ccncc3)cc2)CCCC1` [Apatinib]: the “scaled lipid accumulation score” value reads like this: under setting [3], inactive: ≤ 0; under setting [1], inactive: 0.463. As for `OC[C@@H](O)CN1CCN(c2ccccc2)CC1` [Levodropropizine], the “scaled lipid accumulation score” value by setting is: under setting [3], inactive: ≤ 0; under setting [1], inactive: ≤ -0.001. As for `CCCNC(=O)[C@H]1O[C@@H]1C(=O)N[C@H](C(=O)N1CCC[C@H]1C(=O)OC)C(C)CC` (some centres undefined), the “scaled lipid accumulation score” value (library stock concentration: 12.6 mM) was active: 0.868. For `NCCc1ccc(O)c(O)c1` [Intropin], the “scaled lipid accumulation score” value under setting [1] was inactive: ≤ 0. Same read-out and setting: for `NCCc1ccc(O)c(O)c1` [Dopamine hydrochloride] the value was inactive: ≤ 0 and inactive: ≤ -0.07. As to `NCCc1ccc(O)c(O)c1` [Dopamine HCl], the “scaled lipid accumulation score” value is inactive: 0.03 under setting [3] and inactive: ≤ 0 under setting [1].

Consider `Nc1ncnc2c1c(-c1cccc(OCc3ccccc3)c1)cn2[C@H]1C[C@@H](CN2CCC2)C1`, for which the “scaled lipid accumulation score” value runs as follows: under setting [3], active: 0.894; under setting [1], active: 1.01. With `C[C@H](Cc1ccc(O)c(O)c1)[C@@H](C)Cc1ccc(O)c(O)c1`, under setting [1], the “scaled lipid accumulation score” value is inactive: ≤ -0.055. On to `NC(N)=NC(N)=Nc1ccccc1` [1-Phenylbiguanide], for which the “scaled lipid accumulation score” value under setting [1] was inactive: ≤ 0. As for `CC(C)=CCCC(C)(OC1OC(COC2OCC(O)C(O)C2O)C(O)C(O)C1O)C1CCC2(C)C1C(O)CC1C3(C)CCC(OC4OC(CO)C(O)C(O)C4O)C(C)(C)C3CCC12C` (centres undefined) [Gynostemma Extract], the “scaled lipid accumulation score” value was inactive: 0.01 under setting [3] and inactive: ≤ 0 under setting [1]. `CCCCCCCCCCCCCCCC(=O)N[C@H](CN1CCOCC1)[C@H](O)c1ccccc1` (racemic): the “scaled lipid accumulation score” value under setting [2] was inactive: ≤ -0.021.

Turning to `NC(=O)c1ccccc1` [Benzamide], under setting [1], the “scaled lipid accumulation score” value is inactive: ≤ 0. In the case of `C[C@H](CS)C(=O)N1CCC[C@H]1C(=O)O`, under setting [1], the “scaled lipid accumulation score” value is inactive: ≤ 0. On to `C[C@H](CS)C(=O)N1CCC[C@H]1C(=O)O` [Captopril], for which the “scaled lipid accumulation score” value is inactive: 0.036. Under setting [3], the “scaled lipid accumulation score” value was inactive: ≤ 0. In addition, the “scaled lipid accumulation score” value (library stock concentration: 9.2 mM) is inactive: ≤ -0.006 and inactive: ≤ 0. Besides, under setting [1], the “scaled lipid accumulation score” value was inactive: ≤ 0. As for `c1ccc(\C(\c2c3cccc2)=C\CCNC)c(C=C3)c1` [Norcyclobenzaprine], the “scaled lipid accumulation score” value was active: 1.13. On to `CN(Cc1cc(Br)cc(Br)c1N)C1CCCCC1` [Bromhexine hydrochloride], for which the “scaled lipid accumulation score” value (library stock concentration: 4.8 mM) was inactive: 0.194 and the “scaled lipid accumulation score” value under setting [1] was inactive: ≤ -0.027.

In the case of `CN(Cc1cc(Br)cc(Br)c1N)C1CCCCC1` [Bromhexine HCl], the “scaled lipid accumulation score” value under setting [3] is inactive: ≤ 0, the “scaled lipid accumulation score” value (library stock concentration: 5.3 mM) is inactive: 0.053 and the “scaled lipid accumulation score” value under setting [1] was inactive: 0.46. Turning to `CN(C)CCCCC(=O)Nc1ccc(NC(=S)NC(=O)c2ccc(C(C)(C)C)cc2)cc1` [Tenovin-6], the “scaled lipid accumulation score” value under setting [3] was active: 1.18. Regarding `CC1(C)O[C@@H]2C[C@H]3[C@@H]4C[C@H](F)C5=CC(=O)C=C[C@]5(C)[C@H]4[C@@H](O)C[C@]3(C)[C@]2(C(=O)CO)O1` [Flunisolide], the “scaled lipid accumulation score” value is inactive: ≤ 0. Moreover, the “scaled lipid accumulation score” value under setting [1] is inactive: 0.051. `CC1(C)O[C@@H]2C[C@H]3[C@@H]4C[C@H](F)C5=CC(=O)C=C[C@]5(C)[C@H]4[C@@H](O)C[C@]3(C)[C@]2(C(=O)CO)O1` [FluniSOLIDe]: the “scaled lipid accumulation score” value under setting [1] was inactive: 0.498.

With `Nc1nc(N)c2nc(-c3cccc(O)c3)c(-c3cccc(O)c3)nc2n1`, the “scaled lipid accumulation score” value under setting [3] is inactive: ≤ 0 and the “scaled lipid accumulation score” value under setting [1] was inactive: ≤ 0. For `Cn1cnc2c(F)c(Nc3ccc(Br)cc3Cl)c(C(=O)NOCCO)cc21` [Selumetinib (AZD6244)], the “scaled lipid accumulation score” value by setting is: under setting [3], inactive: ≤ 0; under setting [1], inactive: ≤ 0. Take `Cn1cnc2c(F)c(Nc3ccc(Br)cc3Cl)c(C(=O)NOCCO)cc21`: the “scaled lipid accumulation score” value runs as follows: (library stock concentration: 80 uM) inactive: ≤ 0; (library stock concentration: 400 uM) inactive: ≤ 0 and inactive: ≤ -0.005; (library stock concentration: 2 mM) inactive: ≤ 0 and inactive: ≤ -0.005; under setting [1], inactive: ≤ 0 and inactive: 0.768. In the case of `Br.Br.CN(C)CCCc1cc(C(=O)Nc2ccc(-c3ccncc3)cc2)ccc1O`, the “scaled lipid accumulation score” value under setting [1] was active: 1.13.

Take `CC(C)NCC(O)COc1cccc2[nH]ccc12` (centres undefined): the “scaled lipid accumulation score” value under setting [1] was inactive: ≤ 0. In the case of `CC(C)NCC(O)COc1cccc2[nH]ccc12` (centres undefined) [Pindolol], the “scaled lipid accumulation score” value was inactive: ≤ 0. The “scaled lipid accumulation score” value (library stock concentration: 8.1 mM) is inactive: ≤ -0.006 and inactive: 0.131. The “scaled lipid accumulation score” value under setting [1] was inactive: ≤ 0 and inactive: ≤ -0.055 and inactive: 0.071.
